Measured values as given in article PMC10520887.
These are yes or no findings as the source states them, for the method shown. In cells and extracts the contact can be indirect. Some results given as binding are weak or reduced against the parent protein; the word gives no strength. For part of these data: Sequences can lack the tags named with a protein.

Amino acid sequences for entries named in this document (tags omitted). A change or cut given only in a name is not applied to a line headed by its entry.
UniProt B8XX90: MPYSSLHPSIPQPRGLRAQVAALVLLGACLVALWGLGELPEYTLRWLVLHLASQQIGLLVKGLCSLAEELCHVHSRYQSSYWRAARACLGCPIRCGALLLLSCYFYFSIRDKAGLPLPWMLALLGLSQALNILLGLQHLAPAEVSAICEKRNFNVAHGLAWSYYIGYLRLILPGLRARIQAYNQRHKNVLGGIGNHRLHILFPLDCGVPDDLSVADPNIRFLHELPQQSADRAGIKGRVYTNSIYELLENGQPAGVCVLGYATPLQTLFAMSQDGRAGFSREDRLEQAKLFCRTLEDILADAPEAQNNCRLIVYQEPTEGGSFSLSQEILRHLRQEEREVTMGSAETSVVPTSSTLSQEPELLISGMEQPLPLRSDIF

Legend:
[1] = target: T1, mCherry-pIKKε (porcine IKKε) (porcine) (UniProt M9MMN5); assay: co-IP; 293T cotransfected with 0.5 μg GFP-STING, 0.5 μg TBK1-HA and increasing pIKKε (0.5, 1, 1.5 μg), IP with anti-HA; or 0.5 μg GFP-STING, 0.5 μg mCherry-IKKε and increasing pTBK1 (0.5, 1, 1.5 μg), IP with anti-mCherry; 48 h; Western blot
T1 sequence: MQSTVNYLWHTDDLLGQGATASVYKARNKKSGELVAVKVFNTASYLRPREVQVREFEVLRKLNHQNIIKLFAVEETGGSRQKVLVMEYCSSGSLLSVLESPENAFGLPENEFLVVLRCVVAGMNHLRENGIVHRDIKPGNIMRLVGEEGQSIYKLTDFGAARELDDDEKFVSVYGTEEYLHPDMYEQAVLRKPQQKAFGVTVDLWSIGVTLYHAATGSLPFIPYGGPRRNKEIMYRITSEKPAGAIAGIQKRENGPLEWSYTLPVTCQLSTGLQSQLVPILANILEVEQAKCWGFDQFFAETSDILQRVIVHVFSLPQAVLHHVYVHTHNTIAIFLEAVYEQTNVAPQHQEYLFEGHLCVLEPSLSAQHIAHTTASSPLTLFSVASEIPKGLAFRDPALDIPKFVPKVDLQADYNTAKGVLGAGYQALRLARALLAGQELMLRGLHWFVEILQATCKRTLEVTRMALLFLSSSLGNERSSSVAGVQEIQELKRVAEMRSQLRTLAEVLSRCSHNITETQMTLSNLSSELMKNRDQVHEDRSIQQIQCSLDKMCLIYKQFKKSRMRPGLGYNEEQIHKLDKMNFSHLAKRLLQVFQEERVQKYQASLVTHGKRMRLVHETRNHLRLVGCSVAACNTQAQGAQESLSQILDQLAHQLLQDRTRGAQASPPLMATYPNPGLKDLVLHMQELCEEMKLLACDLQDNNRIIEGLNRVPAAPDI

[2] = target: T2, GFP-pIRF3 (porcine IRF3) (porcine) (UniProt Q764M6); assay: co-IP; HEK293T cotransfected with the two tagged proteins for 48 h (legends; the methods say 24 h); lysis buffer 50 mM Tris pH 7.2, 150 mM NaCl, 1% sodium deoxycholate, 1% Triton X-100; antibody overnight at 4 °C, protein A/G beads 2 h; co-IP and reverse co-IP; Western blot
T2 sequence: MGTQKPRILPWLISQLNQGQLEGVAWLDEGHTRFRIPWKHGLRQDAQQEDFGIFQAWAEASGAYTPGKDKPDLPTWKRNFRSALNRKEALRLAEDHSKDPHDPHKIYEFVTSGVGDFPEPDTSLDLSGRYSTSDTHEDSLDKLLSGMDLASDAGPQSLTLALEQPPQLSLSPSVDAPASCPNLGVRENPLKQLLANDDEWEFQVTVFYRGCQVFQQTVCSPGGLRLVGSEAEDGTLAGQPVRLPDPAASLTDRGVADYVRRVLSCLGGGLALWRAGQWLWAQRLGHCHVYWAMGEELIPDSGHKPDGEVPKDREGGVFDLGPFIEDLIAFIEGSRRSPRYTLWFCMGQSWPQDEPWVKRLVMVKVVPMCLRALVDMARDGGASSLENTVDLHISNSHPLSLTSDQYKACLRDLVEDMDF

[3] = target: T3, pIKKε-GFP (porcine IKKε) (porcine) (UniProt M9MMN5); assay: as above
T3 sequence: T1 sequence

[4] = target: T1, mCherry-pIKKε (porcine IKKε) (porcine); assay: as above
[5] = target: T4, pIKKε-Myc (porcine IKKε) (porcine) (UniProt M9MMN5); assay: as above
T4 sequence: T1 sequence

[6] = target: mCherry-pSTING (porcine STING) (porcine) (UniProt B8XX90); assay: as above
[7] = target: pSTING-HA (porcine STING) (porcine) (UniProt B8XX90); assay: as above
[8] = target: endogenous pSTING (porcine STING) (porcine (endogenous in 3D4/21)) (UniProt B8XX90); assay: co-IP; endogenous proteins of 3D4/21 cells stimulated with or without 2′3′-cGAMP (2 μg/ml); IP with anti-STING antibody (pIKKε–pSTING) or TBK1 antibody (pSTING–pTBK1)

“GFP-pSTING (porcine STING) (from UniProt B8XX90 1-378)” was tested, and the binding [1] was “binds”.

With “mCherry-pSTING (porcine STING) (from UniProt B8XX90 1-378)” the binding [2] was “binds” and the binding [3] was “binds”.

With “GFP-pSTING L373A (from UniProt B8XX90 1-378)” the binding [4] was “no binding”.

“pSTING-HA (porcine STING) (from UniProt B8XX90 1-378)” was tested, and the binding [5] was “binds”.

With “GFP-pSTING (191–338 amino acids) (from UniProt B8XX90 191-338) (domain or fragment)” the binding [4] was “no binding”.

B1: pIKKε-GFP (porcine IKKε) (protein, UniProt M9MMN5 1-718)
chain: T1 sequence
B1 was tested, and the binding [6] was “binds”.

B2: pIKKε-Myc (porcine IKKε) (protein, UniProt M9MMN5 1-718)
chain: T1 sequence
B2 was tested, and the binding [7] was “binds”.

B3: endogenous pIKKε (porcine IKKε) (protein, UniProt M9MMN5 1-718)
chain: T1 sequence
In the case of B3, the binding [8] is reported as “binds”.
